Legend:
[1] = tested on: M21-L12 human melanoma cells; assay: Ad-mediated gene delivery and expression assay (β-galactosidase staining); type: cell-based; details: for cells stained positive for β-galactosidase: Ad RSV-LacZ vector preincubated with antibody at 2 antibody molecules per RGD motif, M21-L12 cells, 48 hrs post-infection
Ad2 = details: cited from earlier work
penton base [2] = molecular target: T1, penton base (Human adenovirus C serotype 2, UniProt P03276); details: cited from earlier work
T1 construct: made in house; host or cells: Trichoplusia Tn 5B1-4 insect cells, baculovirus vector pBlueBac

Ad particles = assay: ELISA on immobilized Ad particles; type: binding, adenovirus
MCF-7 = assay: Cytotoxicity against TNF-sensitive cell line; type: cell-based; details: TNF-α sensitive cell line MCF-7
penton base [3] = molecular target: T1, penton base; assay: ELISA on immobilized penton base; type: binding, Ad2
SW480 epithelial cells = assay: Gene delivery by fiberless adenovirus complexed with bifunctional molecules (β-gal staining); type: cell-based, human; details: fiberless adenovirus particles complexed with the molecule, 48 post infection
M21-L12 cells = assay: Adenovirus internalization assay (resistance to trypsin digestion); type: cell-based, human; details: 125I-labeled virus

T1 sequence (P03276 whole entry): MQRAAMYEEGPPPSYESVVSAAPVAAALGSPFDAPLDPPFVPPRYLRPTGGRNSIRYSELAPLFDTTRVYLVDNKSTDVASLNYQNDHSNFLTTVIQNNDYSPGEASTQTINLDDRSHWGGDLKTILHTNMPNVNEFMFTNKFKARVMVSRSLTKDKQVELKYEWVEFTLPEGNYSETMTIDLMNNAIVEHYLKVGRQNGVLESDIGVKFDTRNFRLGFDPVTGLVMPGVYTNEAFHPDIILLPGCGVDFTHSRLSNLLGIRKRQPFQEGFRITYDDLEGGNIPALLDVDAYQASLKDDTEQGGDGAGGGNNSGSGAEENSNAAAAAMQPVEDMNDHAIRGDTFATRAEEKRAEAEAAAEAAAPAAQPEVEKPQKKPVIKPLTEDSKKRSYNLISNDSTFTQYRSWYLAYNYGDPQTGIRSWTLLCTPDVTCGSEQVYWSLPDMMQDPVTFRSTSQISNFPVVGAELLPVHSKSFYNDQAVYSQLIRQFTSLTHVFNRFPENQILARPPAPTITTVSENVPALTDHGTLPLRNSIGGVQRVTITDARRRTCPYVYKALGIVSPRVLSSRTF

| Molecule | cells stained positive for β-galactosidase [1] | inhibition of virus infection (Ad2) | affinity for penton base (penton base [2]) | binding to immobilized Ad particles (Ad particles) | cytotoxicity (MCF-7) | enhancement of Ad-mediated gene delivery ([1]; Ad vector complexed with the molecule, M21-L12 melanoma cells lacking αv integrins) | increase in gene delivery when DT is added after infection ([1]; M21-L12 cells infected with adenovirus alone for three hours, then DT added, 48 hours post-infection) | binding to immobilized penton base (penton base [3]) | increased gene delivery compared to the uncomplexed fiberless particles (SW480 epithelial cells) | adenovirus internalization (M21-L12 cells) |
| --- | --- | --- | --- | --- | --- | --- | --- | --- | --- | --- |
| D: penton base monoclonal antibody which recognizes the integrin binding site on adenovirus particle types 2/5; control antibody (antibody) heavy: EVQLQQSGPELVKPGASVKISCKASGYTFTDYNMHWVKQSHGKSLEWIGYIYPYKGGTGYNQKFKSKATLTTDSSSNTAYMELRSLTSDASAVYYCARGIAYWGQGTLVTVSAAKTTPPSVYPLAPGSAAQTNSMVTLGCLVKGYFPEPVTVTWNSGSLSSGVHTFPAVLQSDLYTLSSSVTVPSSTWPSETVTCNVAHPASSTKVDKKIVPRDCGCKPCICTVPEVSSVFIFPPKPKDVLTITLTPKVTCVVVDISKDDPEVQFSWFVDDVEVHTAQTQPREEQFNSTFRSVSELPIMHQDWLNGKEFKCRVNSAAFPAPIEKTISKTKGRPKAPQVYTIPPPKEQMAKDKVSLTCMITDFFPEDITVEWQWNGQPAENYKNTQPIMDTDGSYFVYSKLNVQKSNWEAGNTFICSVLHEGLHNHHTEKSLSHSPGK light: DIVLTQSPASLAVSLGQRATISCKASQSVDYDGDSYMNWYQQKPGQPPKLLIYAASNLESGIPARFSGSGSGTDFTLNIHPVEEEDAATYYCQQTNEDPWTFGGGTKLEIKRADAAPTVSIFPPSSEQLTSGGASVVCFLNNFYPKDINVKWKIDGSERQNGVLNSWTDQDSKDSTYSMSSTLTLTKDEYERHNSYTCEATHKTSTSPIVKSFNRNEC | less than 3% | does not inhibit virus infection | high affinity | – | – | – | – | – | – | – |
| DT: DAV-1 fused to TNF-α; heavy chain fusion SEQ ID NO. 11 co-expressed with DAV-1 light chain (antibody, DAV-1 fused to TNF-α; 11 co-expressed with DAV-1 light chain) heavy: EVQLQQSGPELVKPGASVKISCKASGYTFTDYNMHWVKQSHGKSLEWIGYIYPYKGGTGYNQKFKSKATLTTDSSSNTAYMELRSLTSDASAVYYCARGIAYWGQGTLVTVSAAKTTPPSVYPLAPGSAAQTNSMVTLGCLVKGYFPEPVTVTWNSGSLSSGVHTFPAVLQSDLYTLSSSVTVPSSTWPSETVTCNVAHPASSTKVDKKIVPRDCGCKPCICTVPEVSSVFIFPPKPKDVLTITLTPKVTCVVVDISKDDPEVQFSWFVDDVEVHTAQTQPREEQFNSTFRSVSELPIMHQDWLNGKEFKCRVNSAAFPAPIEKTISKTKGRPKAPQVYTIPPPKEQMAKDKVSLTCMITDFFPEDITVEWQWNGQPAENYKNTQPIMDTDGSYFVYSKLNVQKSNWEAGNTFICSVLHEF[skipping about 150 residues] light: DIVLTQSPASLAVSLGQRATISCKASQSVDYDGDSYMNWYQQKPGQPPKLLIYAASNLESGIPARFSGSGSGTDFTLNIHPVEEEDAATYYCQQTNEDPWTFGGGTKLEIKRADAAPTVSIFPPSSEQLTSGGASVVCFLNNFYPKDINVKWKIDGSERQNGVLNSWTDQDSKDSTYSMSSTLTLTKDEYERHNSYTCEATHKTSTSPIVKSFNRNEC | Approximately 60% | – | – | capable of binding | elicited cytotoxicity | approximately 30 fold | very little increase | capable of binding | 10-15 fold | significantly increased the rate and extent of adenovirus internalization |

Source: patent publication US20020164333A1, “Bifunctional molecules and vectors complexed therewith for targeted gene delivery” (The Scripps Research Institute, priority 2000, published 2002)
